# Assay results taken from US20240228567A1 (Zymeworks, published 2024).
# B1: Masked IL12 HetFc fusion protein variant 37483 (p40 E86W) (Fc fusion)
# chain 1: [here human IgG1 Fc with changes without letters]SADGGIWELKKDVYVVELDWYPDAPGEMVVLTCDTPEEDGITWTLDQSSEVLGSGKTLTIQVKEFGDAGQYTCHKGGEVLSHSLLLLHKKWDGIWSTDILKDQKEPKNKTFLRCEAKNYSGRFTCWWLTTISTDLTFSVKSSRGSSDPQGVTCGAATLSAERVRGDNKEYEYSVECQEDSACPAAEESLPIEVMVDAVHKLKYENYTSSFFIRDIIKPDPPKNLQLKPLKNSRQVEVSWEYPDTWSTPHSYFSLTFCVQVQGKSKREKKDRVFTDKTSATVICRKNASISVRAQDRYYSSSWSEWASVPCSGGGGSGGGGSGGGGSNLPVATPDPGMFPCLHHSQNLLRAVSNMLQKARQTLEFYPCTSEEIDHEDITKDKTSTVEACLPLELTKNESCLNSRETSFITNGSCLASRKTSFMMALCLSSIYEDLKMYQVEFKTMNAKLLMDPKRQIFLDQNMLAVIDELMQALNFNSETVPQKSSLEEPDFYKTKIKLCILLHAFRIRAVTIDRVMSYLNAS
# chain 2: EPKSSDKTHTCPPCPAPEAAGGPSVFLFPPKPKDTLMISRTPEVTCVVVSVSHEDPEVKFNWYVDGVEVHNAKTKPREEQYNSTYRVVSVLTVLHQDWLNGKEYKCKVSNKALPAPIEKTISKAKGQPREPQVYVLPPSRDELTKNQVSLLCLVKGFYPSDIAVEWESNGQPENNYLTWPPVLDSDGSFFLYSKLTVDKSRWQQGNVFSCSVMHEALHNHYTQKSLSLSPGGGGGSGGGGSGGGSGGGSGGGGSGGGGSQVQLVESGGGVVQPGRSLRLSCAASGFTFSSYGMHWVRQAPGKGLEWVAFIRYDGSNKYYADSVKGRFTISRDNSKNTLYLQMNSLRAEDTAVYYCKTHGSHDNWGQGTMVTVSSGGSGGGSGGGSGGGSGGGSGQSVLTQPPSVSGAPGQRVTISCSGSRSNIGSNTVKWYQQLPGTAPKLLIYYNDQRPSGVPDRFSGSKSGTSASLAITGLQAEDEADYYCQSYDRYTHPALLFGTGTKVTVL
# B2: Masked IL12 HetFc fusion protein variant 37477 (p40 K84E) (Fc fusion)
# chain 1: [here human IgG1 Fc with changes without letters]SADGGIWELKKDVYVVELDWYPDAPGEMVVLTCDTPEEDGITWTLDQSSEVLGSGKTLTIQVKEFGDAGQYTCHKGGEVLSHSLLLLHEKEDGIWSTDILKDQKEPKNKTFLRCEAKNYSGRFTCWWLTTISTDLTFSVKSSRGSSDPQGVTCGAATLSAERVRGDNKEYEYSVECQEDSACPAAEESLPIEVMVDAVHKLKYENYTSSFFIRDIIKPDPPKNLQLKPLKNSRQVEVSWEYPDTWSTPHSYFSLTFCVQVQGKSKREKKDRVFTDKTSATVICRKNASISVRAQDRYYSSSWSEWASVPCSGGGGSGGGGSGGGGSNLPVATPDPGMFPCLHHSQNLLRAVSNMLQKARQTLEFYPCTSEEIDHEDITKDKTSTVEACLPLELTKNESCLNSRETSFITNGSCLASRKTSFMMALCLSSIYEDLKMYQVEFKTMNAKLLMDPKRQIFLDQNMLAVIDELMQALNFNSETVPQKSSLEEPDFYKTKIKLCILLHAFRIRAVTIDRVMSYLNAS
# chain 2: B1 chain 2
# B3: Masked IL12 HetFc fusion protein variant 37490 (p40 K84I_E86R_D93H) (Fc fusion)
# chain 1: [here human IgG1 Fc with changes without letters]SADGGIWELKKDVYVVELDWYPDAPGEMVVLTCDTPEEDGITWTLDQSSEVLGSGKTLTIQVKEFGDAGQYTCHKGGEVLSHSLLLLHIKRDGIWSTHILKDQKEPKNKTFLRCEAKNYSGRFTCWWLTTISTDLTFSVKSSRGSSDPQGVTCGAATLSAERVRGDNKEYEYSVECQEDSACPAAEESLPIEVMVDAVHKLKYENYTSSFFIRDIIKPDPPKNLQLKPLKNSRQVEVSWEYPDTWSTPHSYFSLTFCVQVQGKSKREKKDRVFTDKTSATVICRKNASISVRAQDRYYSSSWSEWASVPCSGGGGSGGGGSGGGGSNLPVATPDPGMFPCLHHSQNLLRAVSNMLQKARQTLEFYPCTSEEIDHEDITKDKTSTVEACLPLELTKNESCLNSRETSFITNGSCLASRKTSFMMALCLSSIYEDLKMYQVEFKTMNAKLLMDPKRQIFLDQNMLAVIDELMQALNFNSETVPQKSSLEEPDFYKTKIKLCILLHAFRIRAVTIDRVMSYLNAS
# chain 2: B1 chain 2
# B4: Masked IL12 HetFc fusion protein variant 37489 (p40 K58H_E86R_K197D) (Fc fusion)
# chain 1: [here human IgG1 Fc with changes without letters]SADGGIWELKKDVYVVELDWYPDAPGEMVVLTCDTPEEDGITWTLDQSSEVLGSGKTLTIQVHEFGDAGQYTCHKGGEVLSHSLLLLHKKRDGIWSTDILKDQKEPKNKTFLRCEAKNYSGRFTCWWLTTISTDLTFSVKSSRGSSDPQGVTCGAATLSAERVRGDNKEYEYSVECQEDSACPAAEESLPIEVMVDAVHKLDYENYTSSFFIRDIIKPDPPKNLQLKPLKNSRQVEVSWEYPDTWSTPHSYFSLTFCVQVQGKSKREKKDRVFTDKTSATVICRKNASISVRAQDRYYSSSWSEWASVPCSGGGGSGGGGSGGGGSNLPVATPDPGMFPCLHHSQNLLRAVSNMLQKARQTLEFYPCTSEEIDHEDITKDKTSTVEACLPLELTKNESCLNSRETSFITNGSCLASRKTSFMMALCLSSIYEDLKMYQVEFKTMNAKLLMDPKRQIFLDQNMLAVIDELMQALNFNSETVPQKSSLEEPDFYKTKIKLCILLHAFRIRAVTIDRVMSYLNAS
# chain 2: B1 chain 2
# B5: Masked IL12 HetFc fusion protein variant 37482 (p40 K84W) (Fc fusion)
# chain 1: [here human IgG1 Fc with changes without letters]SADGGIWELKKDVYVVELDWYPDAPGEMVVLTCDTPEEDGITWTLDQSSEVLGSGKTLTIQVKEFGDAGQYTCHKGGEVLSHSLLLLHWKEDGIWSTDILKDQKEPKNKTFLRCEAKNYSGRFTCWWLTTISTDLTFSVKSSRGSSDPQGVTCGAATLSAERVRGDNKEYEYSVECQEDSACPAAEESLPIEVMVDAVHKLKYENYTSSFFIRDIIKPDPPKNLQLKPLKNSRQVEVSWEYPDTWSTPHSYFSLTFCVQVQGKSKREKKDRVFTDKTSATVICRKNASISVRAQDRYYSSSWSEWASVPCSGGGGSGGGGSGGGGSNLPVATPDPGMFPCLHHSQNLLRAVSNMLQKARQTLEFYPCTSEEIDHEDITKDKTSTVEACLPLELTKNESCLNSRETSFITNGSCLASRKTSFMMALCLSSIYEDLKMYQVEFKTMNAKLLMDPKRQIFLDQNMLAVIDELMQALNFNSETVPQKSSLEEPDFYKTKIKLCILLHAFRIRAVTIDRVMSYLNAS
# chain 2: B1 chain 2
# B6: Masked IL12 HetFc fusion protein variant 37472 (p40 K84I_E86R) (Fc fusion)
# chain 1: [here human IgG1 Fc with changes without letters]SADGGIWELKKDVYVVELDWYPDAPGEMVVLTCDTPEEDGITWTLDQSSEVLGSGKTLTIQVKEFGDAGQYTCHKGGEVLSHSLLLLHIKRDGIWSTDILKDQKEPKNKTFLRCEAKNYSGRFTCWWLTTISTDLTFSVKSSRGSSDPQGVTCGAATLSAERVRGDNKEYEYSVECQEDSACPAAEESLPIEVMVDAVHKLKYENYTSSFFIRDIIKPDPPKNLQLKPLKNSRQVEVSWEYPDTWSTPHSYFSLTFCVQVQGKSKREKKDRVFTDKTSATVICRKNASISVRAQDRYYSSSWSEWASVPCSGGGGSGGGGSGGGGSNLPVATPDPGMFPCLHHSQNLLRAVSNMLQKARQTLEFYPCTSEEIDHEDITKDKTSTVEACLPLELTKNESCLNSRETSFITNGSCLASRKTSFMMALCLSSIYEDLKMYQVEFKTMNAKLLMDPKRQIFLDQNMLAVIDELMQALNFNSETVPQKSSLEEPDFYKTKIKLCILLHAFRIRAVTIDRVMSYLNAS
# chain 2: B1 chain 2
# B7: Masked IL12 HetFc fusion protein variant 37474 (p40 E86W_D93E) (Fc fusion)
# chain 1: [here human IgG1 Fc with changes without letters]SADGGIWELKKDVYVVELDWYPDAPGEMVVLTCDTPEEDGITWTLDQSSEVLGSGKTLTIQVKEFGDAGQYTCHKGGEVLSHSLLLLHKKWDGIWSTEILKDQKEPKNKTFLRCEAKNYSGRFTCWWLTTISTDLTFSVKSSRGSSDPQGVTCGAATLSAERVRGDNKEYEYSVECQEDSACPAAEESLPIEVMVDAVHKLKYENYTSSFFIRDIIKPDPPKNLQLKPLKNSRQVEVSWEYPDTWSTPHSYFSLTFCVQVQGKSKREKKDRVFTDKTSATVICRKNASISVRAQDRYYSSSWSEWASVPCSGGGGSGGGGSGGGGSNLPVATPDPGMFPCLHHSQNLLRAVSNMLQKARQTLEFYPCTSEEIDHEDITKDKTSTVEACLPLELTKNESCLNSRETSFITNGSCLASRKTSFMMALCLSSIYEDLKMYQVEFKTMNAKLLMDPKRQIFLDQNMLAVIDELMQALNFNSETVPQKSSLEEPDFYKTKIKLCILLHAFRIRAVTIDRVMSYLNAS
# chain 2: B1 chain 2
# B8: Masked IL12 HetFc fusion protein variant 37469 (p40 E86R_K197D) (Fc fusion)
# chain 1: [here human IgG1 Fc with changes without letters]SADGGIWELKKDVYVVELDWYPDAPGEMVVLTCDTPEEDGITWTLDQSSEVLGSGKTLTIQVKEFGDAGQYTCHKGGEVLSHSLLLLHKKRDGIWSTDILKDQKEPKNKTFLRCEAKNYSGRFTCWWLTTISTDLTFSVKSSRGSSDPQGVTCGAATLSAERVRGDNKEYEYSVECQEDSACPAAEESLPIEVMVDAVHKLDYENYTSSFFIRDIIKPDPPKNLQLKPLKNSRQVEVSWEYPDTWSTPHSYFSLTFCVQVQGKSKREKKDRVFTDKTSATVICRKNASISVRAQDRYYSSSWSEWASVPCSGGGGSGGGGSGGGGSNLPVATPDPGMFPCLHHSQNLLRAVSNMLQKARQTLEFYPCTSEEIDHEDITKDKTSTVEACLPLELTKNESCLNSRETSFITNGSCLASRKTSFMMALCLSSIYEDLKMYQVEFKTMNAKLLMDPKRQIFLDQNMLAVIDELMQALNFNSETVPQKSSLEEPDFYKTKIKLCILLHAFRIRAVTIDRVMSYLNAS
# chain 2: B1 chain 2
# B9: Masked IL12 HetFc fusion protein variant 37493 (p40 W15H) (Fc fusion)
# chain 1: [here human IgG1 Fc with changes without letters]SADGGIWELKKDVYVVELDHYPDAPGEMVVLTCDTPEEDGITWTLDQSSEVLGSGKTLTIQVKEFGDAGQYTCHKGGEVLSHSLLLLHKKEDGIWSTDILKDQKEPKNKTFLRCEAKNYSGRFTCWWLTTISTDLTFSVKSSRGSSDPQGVTCGAATLSAERVRGDNKEYEYSVECQEDSACPAAEESLPIEVMVDAVHKLKYENYTSSFFIRDIIKPDPPKNLQLKPLKNSRQVEVSWEYPDTWSTPHSYFSLTFCVQVQGKSKREKKDRVFTDKTSATVICRKNASISVRAQDRYYSSSWSEWASVPCSGGGGSGGGGSGGGGSNLPVATPDPGMFPCLHHSQNLLRAVSNMLQKARQTLEFYPCTSEEIDHEDITKDKTSTVEACLPLELTKNESCLNSRETSFITNGSCLASRKTSFMMALCLSSIYEDLKMYQVEFKTMNAKLLMDPKRQIFLDQNMLAVIDELMQALNFNSETVPQKSSLEEPDFYKTKIKLCILLHAFRIRAVTIDRVMSYLNAS
# chain 2: B1 chain 2
# Molecular target: IL12 receptor on HEK reporter cells stably transfected with genes for the IL12 receptor (UniProt P42701 24-662; Q99665 24-862)
# Test: cell-based or functional assay
"EC50, IL12 RGA, repeat 1 [nM]","EC50, IL12 RGA, repeat 2 [nM]",Binder
0.457,0.474,B1
18.5,21.8,B2
4.28,3.07,B3
17.4,17.9,B4
14.9,8.15,B5
2.54,3.01,B6
0.585,0.482,B7
27.8,18.7,B8
6.05,5.12,B9
